Experimental data as given in ChEMBL document CHEMBL1137992, “Long hydrocarbon chain keto diols and diacids that favorably alter lipid disorders in vivo” (J Med Chem, 2004).
Further values from the same series stand in other lists.

What was measured:
Format in all cases: functional
Rattus norvegicus [1] = test: Percent decrease in non-HDL-cholesterol in obese Zucker rats after 1 week of treatment at a dose of 10 mg/kg/day; parameters: scale not given: the % may be the effect or the level left
Rattus norvegicus [2] = test: Amount of nonesterified fatty acids in obese Zucker rats after 1 week of treatment at a dose of 3 mg/kg/day
Rattus norvegicus [3] = test: Amount of HDL-cholesterol in obese Zucker rats after 2 weeks of treatment at a dose of 0 mg/kg/day
Rattus norvegicus [4] = test: Amount of HDL-cholesterol in obese Zucker rats at pre-treatment at a dose of 3 mg/kg/day
Rattus norvegicus [5] = test: Amount of non-HDL-cholesterol in obese Zucker rats at pre-treatment at a dose of 100 mg/kg/day
Rattus norvegicus [6] = test: Amount of HDL-cholesterol in obese Zucker rats after 1 week of treatment at a dose of 30 mg/kg/day
Rattus norvegicus [7] = test: Amount of HDL-cholesterol in obese Zucker rats at pre-treatment at a dose of 0 mg/kg/day
Outline: (§1)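 Female Zucker fatty rats [Crl:(Zuc)-faBR], 10–12 weeks old (400–500 g), dosed once daily by oral gavage in 20% EtOH/80% PEG-200 (dose volume 0.25% of body weight). Rats were fasted 6 h and bled before dosing and at day 7 (orbital plexus), and at day 14 (cardiac puncture). Serum cholesterol fractions came from Superose 6 gel-filtration lipoprotein profiles (% peak area × serum total cholesterol). Values are mean ± SEM.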

Rattus norvegicus [8] = test: Percent increase in HDL-cholesterol in obese Zucker rats after 2 weeks of treatment at a dose of 100 mg/kg/day
Outline: (§2)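 Female Zucker fatty rats [Crl:(Zuc)-faBR], 10–12 weeks, 400–500 g, acclimated 7 days on chow. Compound or vehicle (20% EtOH/80% PEG-200) given by daily oral gavage for 2 weeks, 0–100 mg/kg/day. After a 6 h fast, blood was taken before dosing, at 1 wk and at 2 wk. Serum lipids, NEFA and insulin (ELISA) were measured; glucose by glucometer. HDL/non-HDL-C came from Superose 6 gel-filtration profiles. Values are % change from pretreatment, mean ± SEM.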

Rattus norvegicus [9] = test: Amount of triglycerides in obese Zucker rats at pre-treatment at a dose of 100 mg/kg/day
Outline: (§3)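 Female Zucker fatty rats [Crl:(Zuc)-faBR], 10–12 weeks old (400–500 g), dosed once daily by oral gavage in 20% EtOH/80% PEG-200 for up to 14 days. After a 6-h fast, serum was taken pre-dose, at day 7 (orbital venous plexus, O2/CO2 anaesthesia) and at day 14 (cardiac puncture), stored at −80 °C, and assayed on a Hitachi 912 automatic analyzer. Mean ± SEM.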

Rattus norvegicus [10] = test: Amount of nonesterified fatty acids in obese Zucker rats after 2 weeks of treatment at a dose of 30 mg/kg/day; outline: as §3
Rattus norvegicus [11] = test: Amount of triglycerides in obese Zucker rats after 2 weeks of treatment at a dose of 0 mg/kg/day; outline: as §3
Rattus norvegicus [12] = test: Percent decrease in HDL-cholesterol in obese Zucker rats after 1 week of treatment at a dose of 0 mg/kg/day; parameters: scale not given: the % may be the effect or the level left
Rattus norvegicus [13] = test: Amount of nonesterified fatty acids in obese Zucker rats after 1 week of treatment at a dose of 10 mg/kg/day; outline: as §3
Rattus norvegicus [14] = test: Amount of glucose in obese Zucker rats at pre-treatment at a dose of 30 mg/kg/day
Outline: (§4)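 Female Zucker fatty rats [Crl:(Zuc)-faBR], 10–12 weeks old (400–500 g), gavaged daily with vehicle (20% EtOH/80% PEG-200, 0.25% of body weight) or compound. After a 6-h fast, blood glucose was read by glucometer from tail-prick blood of unanesthetized rats before dosing and after 1 and 2 weeks. Values are mean ± SEM.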

Rattus norvegicus [15] = test: Amount of nonesterified fatty acids in obese Zucker rats after 2 weeks of treatment at a dose of 100 mg/kg/day; outline: as §3
Rattus norvegicus [16] = test: Percent increase in insulin in obese Zucker rats after 1 week of treatment at a dose of 30 mg/kg/day
Rattus norvegicus [17] = test: Amount of non-HDL-cholesterol in obese Zucker rats at pre-treatment at a dose of 10 mg/kg/day
Outline: (§5)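 Female obese Zucker fatty rats [Crl:(Zuc)-faBR], 10–12 weeks old (400–500 g), on chow. Compound in 20% EtOH/80% PEG-200 (v/v) given by daily oral gavage. After a 6-h fast, serum was taken before dosing and at 7 days (orbital plexus), and at 14 days (cardiac puncture). Lipoprotein cholesterol came from Superose 6HR gel-filtration profiles × serum total cholesterol. Mean ± SEM.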

Rattus norvegicus [18] = test: Amount of non-HDL-cholesterol in obese Zucker rats after 1 week of treatment at a dose of 100 mg/kg/day; outline: as §1
Rattus norvegicus [19] = test: Amount of non-HDL-cholesterol in obese Zucker rats after 2 weeks of treatment at a dose of 10 mg/kg/day; outline: as §1
Rattus norvegicus [20] = test: Percent decrease in insulin in obese Zucker rats after 2 weeks of treatment at a dose of 100 mg/kg/day; parameters: scale not given: the % may be the effect or the level left
Rattus norvegicus [21] = test: Amount of non-HDL-cholesterol in obese Zucker rats after 2 weeks of treatment at a dose of 3 mg/kg/day; outline: as §5
Rattus norvegicus [22] = test: Percent decrease in non-HDL-cholesterol in obese Zucker rats after 1 week of treatment at a dose of 100 mg/kg/day; parameters: scale not given: the % may be the effect or the level left; outline: as §2
Rattus norvegicus [23] = test: Percent decrease in nonesterified fatty acids in obese Zucker rats after 1 week of treatment at a dose of 30 mg/kg/day; parameters: scale not given: the % may be the effect or the level left; outline: as §2
Rattus norvegicus [24] = test: Percent decrease in glucose in obese Zucker rats after 2 weeks of treatment at a dose of 100 mg/kg/day; parameters: scale not given: the % may be the effect or the level left
Rattus norvegicus [25] = test: Amount of glucose in obese Zucker rats after 2 weeks of treatment at a dose of 10 mg/kg/day; outline: as §4
Rattus norvegicus [26] = test: Amount of glucose in obese Zucker rats after 1 week of treatment at a dose of 30 mg/kg/day; outline: as §4

| SMILES | Activity (Rattus norvegicus [2]) | Activity (Rattus norvegicus [3]) | Activity (Rattus norvegicus [4]) | Activity (Rattus norvegicus [5]) | Activity (Rattus norvegicus [6]) | Activity (Rattus norvegicus [7]) | Activity (Rattus norvegicus [8]) | Activity (Rattus norvegicus [9]) | Activity (Rattus norvegicus [10]) | Activity (Rattus norvegicus [11]) | Activity (Rattus norvegicus [12]) | Activity (Rattus norvegicus [13]) | Activity (Rattus norvegicus [14]) | Activity (Rattus norvegicus [15]) | further results |
| --- | --- | --- | --- | --- | --- | --- | --- | --- | --- | --- | --- | --- | --- | --- | --- |
| CC(C)(CCCCC(=O)CCCCC(C)(C)C(=O)O)C(=O)O | 1.2 mg/dL | 38 mg/dL | 31 mg/dL | 31 mg/dL | 53 mg/dL | – | – | – | – | – | – | – | – | – | Activity (Rattus norvegicus [1]): -35% |
| CC(C)(CO)CCCCC(=O)CCCCC(C)(C)CO | 1.2 mg/dL | 41 mg/dL | 48 mg/dL | 31 mg/dL | 60 mg/dL | 48 mg/dL | 76% | 1051 mg/dL | 1.2 mg/dL | 1099 mg/dL | -19% | 0.98 mg/dL | 111 mg/dL | 0.94 mg/dL | – |
| CC(C)(CCCCCC(=O)CCCCCC(C)(C)C(=O)O)C(=O)O | 1.1 mg/dL | 69 mg/dL | 77 mg/dL | 26 mg/dL | 159 mg/dL | 76 mg/dL | 113% | 937 mg/dL | 0.66 mg/dL | 1189 mg/dL | -13% | 1 mg/dL | 119 mg/dL | 0.66 mg/dL | Activity (Rattus norvegicus [16]): -35%; Activity (Rattus norvegicus [17]): 22 mg/dL; Activity (Rattus norvegicus [18]): 2 mg/dL; Activity (Rattus norvegicus [19]): 34 mg/dL; Activity (Rattus norvegicus [20]): -50%; Activity (Rattus norvegicus [21]): 25 mg/dL; Activity (Rattus norvegicus [22]): -92%; Activity (Rattus norvegicus [23]): -32%; Activity (Rattus norvegicus [24]): -10%; Activity (Rattus norvegicus [25]): 125 mg/dL; Activity (Rattus norvegicus [26]): 108 mg/dL |
